Earlier results in paper PMC12030314, “Biomarker-Driven Pharmacokinetics and Efficacy of Polymyxin B in Critically Ill Patients with XDR-GN Pneumonia” (Pharmaceuticals, 2025).
Where a SMILES comes first, the peptide text is derived from it. Bridges are numbered along the chain shown (N, C = ends). [ ]: non-standard residue; d: D form. The star is where a group is joined. X1 = CC[C@H](C)CCCCC(=O)*; Dab = NCC[C@H](N)C(=O)O

Details: Chinese critically ill patients, CRO nosocomial pneumonia; loading 100–200 mg, 40–100 mg every 12 h; population PK model; ref Zhang et al., 2023 [60]; cited from earlier work
Excerpt: Table A1 Published PMB PK/PD studies. | […] . […] In studies of noncritically ill patients, the Vd reported in non-Asian patie ...

CC[C@H](C)CCCCC(=O)N[C@@H](CCN)C(=O)N[C@H](C(=O)N[C@@H](CCN)C(=O)N[C@H]1CCNC(=O)[C@H]([C@@H](C)O)NC(=O)[C@H](CCN)NC(=O)[C@H](CCN)NC(=O)[C@H](CC(C)C)NC(=O)[C@@H](Cc2ccccc2)NC(=O)[C@H](CCN)NC1=O)[C@@H](C)O [PMB, polymyxin B] (X1-[Dab]T[Dab][Dab][Dab][dF]L[Dab][Dab]T; lactam 4-C)
CL: 1.56 L/h
